Data published in publication PMC4336329 (PLoS ONE, 2015).
Out of some 310,000 compounds screened, about 14,000 (4.5%) showed an effect of 50% or more. The effect is printed as a negative number. The list shows a part of the results.

Target: human ether-à-go-go-related gene (hERG) potassium channel (human, UniProt Q12809)
Assay: primary screen, population patch clamp on CHO cells stably expressing hERG
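Also: peak tail current of the secondary pulse compared with the same well before compound.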

human ether-à-go-go-related gene (hERG) potassium channel, sequence (Q12809 whole entry, looked up): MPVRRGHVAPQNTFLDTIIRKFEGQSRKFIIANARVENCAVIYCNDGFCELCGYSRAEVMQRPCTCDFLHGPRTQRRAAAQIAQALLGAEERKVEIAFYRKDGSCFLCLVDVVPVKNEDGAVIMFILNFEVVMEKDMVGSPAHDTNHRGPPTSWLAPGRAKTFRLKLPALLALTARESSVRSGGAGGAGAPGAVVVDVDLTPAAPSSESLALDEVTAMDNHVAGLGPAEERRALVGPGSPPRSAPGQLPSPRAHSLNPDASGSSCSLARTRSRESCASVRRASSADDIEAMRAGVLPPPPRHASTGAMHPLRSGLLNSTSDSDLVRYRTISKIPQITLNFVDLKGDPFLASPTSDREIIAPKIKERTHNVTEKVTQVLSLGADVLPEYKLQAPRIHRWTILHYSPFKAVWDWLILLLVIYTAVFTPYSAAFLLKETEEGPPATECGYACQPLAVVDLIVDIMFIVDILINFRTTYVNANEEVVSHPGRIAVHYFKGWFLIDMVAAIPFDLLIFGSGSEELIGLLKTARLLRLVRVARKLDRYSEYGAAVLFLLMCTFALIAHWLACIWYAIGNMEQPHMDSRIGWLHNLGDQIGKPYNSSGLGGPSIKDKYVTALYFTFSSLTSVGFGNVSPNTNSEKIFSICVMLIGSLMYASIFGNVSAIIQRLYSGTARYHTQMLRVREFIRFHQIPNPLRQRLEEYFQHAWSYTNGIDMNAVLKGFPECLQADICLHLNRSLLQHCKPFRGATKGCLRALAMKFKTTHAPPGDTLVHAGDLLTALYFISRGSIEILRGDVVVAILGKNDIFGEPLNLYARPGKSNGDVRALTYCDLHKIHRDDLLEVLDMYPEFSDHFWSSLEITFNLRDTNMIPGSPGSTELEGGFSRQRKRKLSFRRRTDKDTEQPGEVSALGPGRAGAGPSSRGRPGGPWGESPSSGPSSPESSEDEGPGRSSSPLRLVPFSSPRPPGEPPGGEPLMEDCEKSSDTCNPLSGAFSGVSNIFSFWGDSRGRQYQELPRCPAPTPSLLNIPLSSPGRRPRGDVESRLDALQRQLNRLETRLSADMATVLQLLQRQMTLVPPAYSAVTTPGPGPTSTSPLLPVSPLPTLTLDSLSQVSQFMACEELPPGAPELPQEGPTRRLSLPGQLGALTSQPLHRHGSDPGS

Row | SMILES | hERG current change (%, negative = inhibition) at 10uM
1 | CCN(CC)CCN1C(=O)C(=O)/C(=C(/O)c2ccncc2)C1c1ccccc1 (stereo not shown) | 18.4%
2 | COc1cc(NCC(=O)Nc2cccc(S(=O)(=O)N3CCCCC3)c2)cc(OC)c1OC | -13.9%
3 | Cc1ccc(NC(=O)CCN2CCN(C/C=C/c3ccccc3)CC2)cc1C.Cl | -71.8%
4 | COCCn1c(SCC(=O)NC2CCCCC2)nnc1-c1ccco1 | 5.35%
5 | O=C(Cn1cc(C(F)(F)F)ccc1=O)N/N=C/c1ccc(Cl)cc1Cl | -3.24%
6 | CCc1ccc(C(=O)CSc2nc(C)cc(=O)[nH]2)cc1 | 8.79%
7 | CCOc1ccc(NC(=O)CN(C)C(=O)c2ccc(C)o2)cc1OCC | 25.5%
8 | O=C(N/C(=C\c1cccnc1)C(=O)N1CCC(O)CC1)c1ccccc1 | 21.9%
9 | COc1cccc(OCc2cc(C(=O)N(C)Cc3nccn3C)no2)c1 | 2.52%
10 | CC(Oc1ccccc1)C(=O)Nc1cccc(-c2nc3ccccc3[nH]2)c1 (stereo not shown) | -35.8%
11 | Cn1cnc(S(=O)(=O)Nc2ccccc2C(=O)NCC2CC2)c1 | 13.7%
12 | COc1ccc(C2(NC(C)=O)CCN(Cc3cccnc3)CC2)cc1 | 11.1%
13 | CC1CCCCN1S(=O)(=O)c1ccc(S(=O)(=O)N2CCN(C)CC2)cc1 (stereo not shown) | 16.2%
14 | CC(=O)CSc1nnc(Cc2ccc3c(c2)OCO3)o1 | 4.9%
15 | CCCn1c(N)c(N(CCOC)C(=O)c2cccc(F)c2)c(=O)[nH]c1=O | 22.9%
16 | COCCCn1c(SCC(=O)Nc2cccc(C)n2)nnc1-c1ccco1 | -69.3%
17 | O=C(/C=C/c1cccc(Cl)c1)Nc1ncccn1 | -12%
18 | COc1cc(C(=O)N2c3ccccc3CCC2C)cc(OC)c1OC (stereo not shown) | 5.32%
19 | CCOC(=O)Cc1c(C)c2c(C)nn(-c3ccccc3)c2oc1=O | -14.6%
20 | Cc1ccc2ncc(S(=O)(=O)c3ccccc3)c(N3CCCCC3C)c2c1 (stereo not shown) | 18.7%
21 | COc1cc(C(=O)N2CCN(Cc3ccc4c(c3)OCO4)CC2)cc(OC)c1OC.O=C(O)C(=O)O | -23.5%
22 | O=C(COC(=O)CCC1CCCC1)Nc1ccccc1Sc1ccccc1 | 22.1%
23 | CCNC(=O)NC(=O)C(C)SCc1ccccc1C (stereo not shown) | 16.9%

Row | SMILES | hERG current change (%, negative = inhibition) at 10uM
24 | CC(NC(=O)CN1CCN(c2ncccn2)CC1)c1ccc(F)cc1 (stereo not shown) | -8.03%
25 | COc1ccc(C)cc1-n1nnnc1SCC1CCCO1 (stereo not shown) | -11.9%
26 | CCCC(C)NC(=O)CN1C(=O)c2cccc3cccc1c23 (stereo not shown) | 1.42%
27 | CCC1(CC)Cc2ccccc2-c2nc(CN3CCOCC3)[nH]c(=O)c21 | 0.538%
28 | Cc1cccc(N(Cc2ccccc2)C(=O)c2ccc(C)c(S(=O)(=O)N3CCOCC3)c2)c1 | -17.6%
29 | O=C(Nc1ccccc1NC(=O)c1ccco1)c1ccco1 | -9.67%
30 | COC(=O)C1=C(C)NC(=O)CC1c1ccc(F)c(Br)c1 (stereo not shown) | -7.19%
31 | CC(=O)c1cccc(OCc2cc(C(=O)N(C)Cc3ccc(C)o3)no2)c1 | -3.16%
32 | COc1cccc(OC)c1C(=O)Nc1ccc(Cc2ccncc2)cc1 | 8.86%
33 | Cc1cccc(-c2cccc(NC(=O)C3CCCN(C(=O)c4ocnc4C)C3)c2)c1 (stereo not shown) | -53%
34 | Cc1[nH]n(-c2cccc3ccccc23)c(=O)c1/C=N/NC(=O)c1cccc([N+](=O)[O-])c1 | -11.8%
35 | COc1ccc(Cl)cc1NC(=S)NCCc1ccc(S(N)(=O)=O)cc1 | 5.52%
36 | CC(=O)Nc1ccc(OC(=O)C(CCS(C)(=O)=O)N2C(=O)c3ccccc3C2=O)cc1 (stereo not shown) | 10.7%
37 | CCOC(=O)CC1=C(C(=O)OCC)C(c2cccs2)C(C#N)=C(N)O1 (stereo not shown) | 5.17%
38 | COc1ccc(Cl)cc1Nc1nc(-c2cccnc2)cs1 | 5.19%
39 | COc1ccc(C(C)(C)C)cc1NC(=O)c1c(C)noc1C | -13.8%
40 | CCc1ccc(C(=O)NNC(=O)OC)cc1 | 8.49%
41 | CN1CCN(C(=O)c2ccc(CSc3ccc(Cl)cc3)cc2)CC1 | -38.1%
42 | CCN(CC)C(=O)CSc1nnc(-c2ccccc2)n1-c1ccccc1 | 17.8%
43 | COC(=O)C1=C(C(=O)OC)C2(OC1c1ccccc1C)C(=O)c1ccccc1C2=O (stereo not shown) | 15.6%
44 | Cc1ccc2oc(=S)n(C)c2c1 | -5.64%
45 | Nc1cc(=O)[nH]c2nnc(SCC(=O)Nc3cccc4ccccc34)n12 | 6.6%
46 | CC(C)(C)NC(=O)c1ccc(COCC(F)(F)F)o1 | -4.16%
